The values that follow come from PubChem BioAssay AID488969 (Vanderbilt High Throughput Screening Facility, 2010).

The structures appear in SMILES notation. In all, about 110,000 compounds were measured (“z-score”: median about -0.1, highest 2% from about 2 on). Some of the results follow.

In this experiment the target is Metabotropic glutamate receptor 8 (Rattus norvegicus) (UniProt P70579). In words: rat mGluR8 modulators via GIRK flux, primary screen, cell-based, thallium flux, HTS (AID 488969). The following applies: HEK293 rat mGluR8, GIRK (G protein-gated inwardly rectifying potassium channel) thallium flux, FluoZin2; at 10 µM; stronger effect = higher value; submaximal glutamate (EC20) added with thallium.
Chain of UniProt P70579 (P70579 whole entry, looked up): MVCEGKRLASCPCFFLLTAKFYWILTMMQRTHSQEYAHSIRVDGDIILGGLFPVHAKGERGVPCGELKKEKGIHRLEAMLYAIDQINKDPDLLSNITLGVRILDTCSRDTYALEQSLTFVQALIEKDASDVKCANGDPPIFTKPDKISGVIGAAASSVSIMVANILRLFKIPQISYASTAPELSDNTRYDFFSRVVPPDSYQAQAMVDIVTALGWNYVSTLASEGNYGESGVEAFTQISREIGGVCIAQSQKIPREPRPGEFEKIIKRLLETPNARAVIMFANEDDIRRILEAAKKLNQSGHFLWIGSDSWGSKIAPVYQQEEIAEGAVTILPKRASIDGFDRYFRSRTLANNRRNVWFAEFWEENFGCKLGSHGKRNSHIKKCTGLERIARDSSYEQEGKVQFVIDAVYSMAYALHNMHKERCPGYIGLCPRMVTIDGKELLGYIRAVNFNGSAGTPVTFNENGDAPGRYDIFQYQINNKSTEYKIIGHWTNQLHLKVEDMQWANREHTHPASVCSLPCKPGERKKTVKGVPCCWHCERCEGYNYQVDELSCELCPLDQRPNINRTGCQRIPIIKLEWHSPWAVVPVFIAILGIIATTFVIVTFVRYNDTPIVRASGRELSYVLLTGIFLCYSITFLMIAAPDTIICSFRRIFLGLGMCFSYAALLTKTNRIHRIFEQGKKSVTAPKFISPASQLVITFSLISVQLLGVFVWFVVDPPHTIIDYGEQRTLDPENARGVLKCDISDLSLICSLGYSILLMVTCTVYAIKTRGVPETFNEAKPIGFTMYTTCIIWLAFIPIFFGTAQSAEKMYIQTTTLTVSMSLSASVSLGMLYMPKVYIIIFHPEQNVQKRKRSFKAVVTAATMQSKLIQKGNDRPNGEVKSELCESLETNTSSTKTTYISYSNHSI
On to `O=C(c1ccco1)N1CCCC(c2ccccc2)C1` (stereo not given), for which the z-score was -0.388. The result for `O=c1[nH]c2cccnc2n1Cc1ccco1` reads 0.26; that for `CC(C)N=c1scc(-c2ccco2)n1/N=C/c1ccc(O)c(O)c1`, 1.68. The result for `CC(=C/C(=O)O)/C=C/c1cccs1` reads -0.429.

`Cc1nc(N(C)Cc2ccccc2)c2nnn(Cc3ccccc3)c2n1` came in with a z-score of -0.549.

On to `Cc1ccc(C)c(SCc2noc(C(=O)NCC3CCCO3)c2C(=O)O)c1` (stereo not given), for which the z-score was -0.357.

Take `CS(=O)(=O)N(CC(=O)Nc1ccccc1C(=O)NCc1ccccc1)c1ccc2c(c1)OCCO2`: the z-score was determined as 0.0819. On to `Cc1cccc(N(C(=O)c2cnc3n(c2=O)CCS3)C2CCCCC2)c1`, for which the z-score is 0.0506.

Take `O=C(NCc1ccccc1)c1cnc2n(c1=O)CCS2`: the z-score was -0.0906.

Take `COCCNCC(=O)NC12CC3CC(CC(C3)C1)C2`: the z-score is -0.237. The same measure for `CCOC(=O)c1cc(-c2nnc(-c3ccc(Oc4ccccc4)cc3)o2)c(C)nc1C`: -0.116; for `CC(NC(=O)COc1ncnc2cc([N+](=O)[O-])ccc12)c1ccccc1` (stereo not given): -0.282; for `CC(C)C1Cc2[nH]c(=O)c(C(=O)O)cc2CO1` (stereo not given): -0.205. The same measure for `CCOC(=O)CN(C(=O)CNC(=O)c1cccs1)C(C(=O)NC1CCCC1)c1cccnc1` (stereo not given): -0.197; for `O=C(NCCc1c[nH]c2ccccc12)c1ccc([N+](=O)[O-])cc1`: -0.249; for `Nc1c(C(=O)NCc2ccccc2)sc2nc(N3CCOCC3)c3c(c12)CCCC3`: -0.0483. The result for `Cn1c(CCN2CCCCC2)nc2cc(NC(=O)Nc3ccccc3)ccc21` reads 0.037; that for `CCCc1cc(=O)[nH]c(/N=C(/NC(=O)c2ccccc2)Nc2ccc3c(c2)OCCO3)n1`, -0.0513. In turn, `C/C(=N\Nc1nc2ccccc2[nH]1)c1cccs1` yielded a z-score of -0.515. Regarding `Cc1cc(C)cc(NC(=S)N=Nc2c(O)n(C)c3ccc(S(=O)(=O)N4CCOCC4)cc23)c1`, the z-score was determined as 0.616. The same measure for `CCOC(=O)c1sc(N/N=C/c2cccc(C)c2)nc1C`: 0.0699; for `COc1ccc(S(=O)(=O)N2CCOCC2)cc1NC(=O)COc1ncnc2ccccc12`: -0.0483; for `CC(C)N1CC=C2C(C#N)=C(N)C(C#N)(C#N)C(c3ccccc3)C2C1` (stereo not given): -2.27. The same measure for `CCCCN(CC)CCNC(=O)c1[nH]c(C)c(C(C)=O)c1C`: 0.262; for `O=C(Nc1ccc(N2CCCC2)c(Cl)c1)c1cccnc1`: -0.187. Regarding `N#C/C(=C\c1ccc(Cl)cc1)c1nc2ncccc2[nH]1`, the z-score is -0.709. The same measure for `Cn1c(Cc2cccs2)nnc1SCC(=O)N1CCCc2ccccc21`: -0.115; for `CCOc1ccc(-n2c(C)nc3c(cnn3-c3ccc(Cl)cc3)c2=O)cc1`: 0.346.

For `Cc1ccc(NC(=O)C(=O)NCCN2CCN(Cc3ccc([N+](=O)[O-])cc3)CC2)cc1`, the z-score was -0.113.

Take `Cc1ccc(-c2nn3c(C)nnc3s2)cc1N`: the z-score amounted to 0.054.
